Values joined by “and” are separate entries in the source; they are usually repeats but may differ in a detail not shown here. Equal entries are not always repeated. Screen size: about 360,000 compounds; about 2,600 (0.72%) were called active. Inconclusive results, whose numbers are uncertain, are shown with a selection of clear calls. Calls follow the shape of the dose curve; as a rule, active = well fitted inhibition curve with a large enough effect; inconclusive = small, poorly fitted or top-dose-only effect; inactive = no such curve, though single readings can be large or run the other way. Potencies beside an inconclusive call are fits to weak or partial responses and may not hold up.
Experiment: Primary qHTS for Inhibitors of ATXN expression; also: nearly all actives have a fitted effect of over 55% in size
Details: HEK-293 ATXN2-luciferase reporter, luminescence, 24 h; activity change, negative = inhibition: at 57 µM (top of the series)
In short: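 qHTS (up to 57 uM final) was run with 24 h compound exposure of reporter cells at 37 °C. Each well was multiplexed: SteadyGlo luminescence measured ATXN2-luciferase expression after a fluorogenic Gly-Phe-AFC viability readout (25 uM final).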
% is scaled to controls: 0 for no effect and ±100 for the full control effect; potency is read from the fitted curve at half-maximal effect; tags tell the direction and shape of the fitted curve.

SMILES	Potency	activity change, negative = inhibition
C=CCNc1nc(NCCOc2ccccc2Cl)c2sc(-c3ccccc3)cc2n1	inconclusive: 28.2 µM [inhibitor, single point]	
COc1ccc(CC(N)c2csc(NC(=O)Nc3cc(OC)ccc3OC)n2)cc1 (stereo unspecified)	inconclusive: 22.4 µM [inhibitor, single point]	
CC1(C(=O)O)CCC(C(=O)NNC(=O)c2ccccc2O)C1(C)C (stereo unspecified)		inactive: -0.638%
CCc1ccc(C2NC(=S)NC3=C2C(=O)N(c2ccccc2OC)C(c2ccc(CC)cc2)N3)cc1 (stereo unspecified)	inconclusive: 39.8 µM [inhibitor, single point]	
COc1cccc(NC(=O)C2CCCN2S(=O)(=O)c2ccc3nc(-c4ccccc4)[nH]c3c2)c1 (stereo unspecified)	inconclusive: 39.8 µM [inhibitor, single point]	
Cc1c(C(=O)OCC2CCCO2)[nH]c2c1C(=O)CC(c1ccc(N(C)C)cc1)C2 (stereo unspecified)	inconclusive: 39.8 µM [inhibitor, single point]	
CC(=O)C1=CCC(c2ccc(Cl)c(Cl)c2)N(S(=O)(=O)c2ccc(C)cc2)C1 (stereo unspecified)	inconclusive: 17.8 µM [inhibitor, partial curve]	
Cc1occc1C(=O)NC1CCCN(Cc2ccc(CC(C)C)cc2)C1 (stereo unspecified)	inconclusive: 28.2 µM [inhibitor, partial curve]	
Cc1ccc(C)c(CS(=O)(=O)c2cn(CC(=O)N3CCC(C)CC3)c3ccccc23)c1	inconclusive: 7.94 µM [inhibitor, partial curve, poor fit]	
N=C1SCC(=O)N1c1ncc(Cc2ccccc2Cl)s1	inconclusive: 31.6 µM [inhibitor, single point]	
OC[C@@H]1[C@@H](c2ccc(F)cc2)C(c2ccccc2)=NN1c1ccccc1	inconclusive: 39.8 µM [inhibitor, single point]	
Cc1ccccc1/C=N/n1c(-c2cc(-c3ccccc3)n[nH]2)n[nH]c1=S		inactive: 0.316%
CCOc1ccc(NS(=O)(=O)c2ccc(NS(=O)(=O)c3ccccc3)cc2)cc1		inactive: -11.3%
CC1(C)CC(=O)C2=C(C1)N(c1ccc(Cl)cc1)C(=O)C2(O)C(F)(F)F (stereo unspecified)		inactive: 0.518%
CCCOc1ccc(-c2cccc(NS(=O)(=O)c3ccc(CC)cc3)c2)nn1	inconclusive: 39.8 µM [inhibitor, partial curve, poor fit]	
COc1ccccc1N1CCN(C(=O)CSc2nnc3n2C(C)(C)Cc2ccccc2-3)CC1	inconclusive: 17.8 µM [inhibitor, partial curve]	
CCCC(=O)NC(=S)Nc1ccc(S(=O)(=O)N2CCc3ccccc32)cc1	inconclusive: 16.8 µM [inhibitor, partial curve, poor fit]	
OCCN(CCO)CC(O)COc1ccc(C23CC4CC(CC(C4)C2)C3)cc1 (stereo unspecified)	inconclusive: 1.41 µM [inhibitor, partial curve]	
O=C(CSc1nc(-c2ccccc2)c(-c2ccccc2)[nH]1)Nc1nccs1	inconclusive: 39.8 µM [inhibitor, single point]	
COc1ccccc1C(=O)N1CCN(Cc2c[nH]c3ccccc23)CC1	inconclusive: 8.91 µM [inhibitor, single point]	
C[C@](N)(Cc1ccc(O)c(O)c1)C(=O)O	inconclusive: 8.63 µM [inhibitor, partial curve]	

SMILES	Potency	activity change, negative = inhibition
COc1ccc(NS(=O)(=O)c2ccc(C)c(C(=O)NNC(=O)c3ccccc3O)c2)cc1	inconclusive: 14.1 µM [inhibitor, partial curve, poor fit]	
COC(=O)c1ccc(N2CCN(C(=O)c3ccccc3)CC2)c(NC(C)=O)c1		inactive: 13.2%
O=C(NCC(c1ccco1)N1CCCCC1)c1ccc([N+](=O)[O-])s1 (stereo unspecified)	inconclusive: 20 µM [inhibitor, partial curve]	
CN1CCN(c2ncnc3sc(-c4ccccc4)cc23)CC1	inconclusive: 17.8 µM [inhibitor, partial curve]	
COc1ccc(Cl)cc1NC(=O)Cn1nnc(C(=O)NCc2ccc3c(c2)OCO3)c1N	inconclusive: 31.6 µM [inhibitor, single point] and inconclusive: 39.8 µM [inhibitor, single point]	
CN1CCN(c2ccc(-c3ccc4ccccc4n3)cc2)CC1	active: 0.377 µM	
COc1ccc(NC(=O)C(C)N2c3cccc4cccc(c34)S2(=O)=O)cc1 (stereo unspecified)		inactive: -7.05%
O=C1N[C@@H](Cc2ccccc2)COC(=O)[C@@H](Cc2ccc(F)cc2)C/C=C\C[C@@H]1CC(=O)N(CCO)Cc1ccccc1	inconclusive: 25.1 µM [inhibitor, single point]	
CC(C)C[C@H](N)c1nnc(S(=O)(=O)Cc2cccc(F)c2)o1	inconclusive: 39.8 µM [inhibitor, single point]	
COc1cccc(NC(=O)Nc2nc(-c3ccc(OC)c(OC)c3)cs2)c1	active: 3.16 µM	
CC(=O)N1c2c(cc(Br)cc2S(=O)(=O)Nc2ccc(OC(F)(F)F)cc2)CC1C (stereo unspecified)	inconclusive: 12.6 µM [inhibitor, partial curve]	
[O-]/C(=C(\C(=S)Nc1cccc2ccccc12)[n+]1ccccc1)c1ccc(Cl)s1	inconclusive: 10 µM [inhibitor, partial curve, poor fit]	
O=C1/C(=C/c2cccs2)COc2ccccc21		inactive: 6.5%
CCOC(=O)C(C(=O)OCC)c1cc(Br)c2noc3c2c1C(=O)c1ccccc1-3	active: 11.2 µM	
CC1CCOC2(O1)C(=O)N(CN1CCN(c3ccccc3F)CC1)c1ccccc12 (stereo unspecified)		inactive: 0.792%
CC(CN1CCCCC1)OC(=O)c1ccccc1Cl (stereo unspecified)		inactive: -8.37%
Cc1nc(SCC(=O)Nc2ccc(S(=O)(=O)N3CCOCC3)cc2)c2c(C)c(C)sc2n1	inconclusive: 11.2 µM [inhibitor, partial curve]	
CCOC(=O)N1CCN(c2nc3ccc(C(=O)c4ccccc4)cc3n3cnnc23)CC1	inconclusive: 14.1 µM [inhibitor, partial curve, poor fit]	
CCOCCc1nnc(N)s1		inactive: -4.07%
CCCC1=Nc2cc(C(=O)NCC(C)c3ccccc3)ccc2Sc2ccccc21 (stereo unspecified)	inconclusive: 11.2 µM [inhibitor, partial curve, poor fit]	

From PubChem BioAssay AID1745845 (National Center for Advancing Translational Sciences (NCATS), 2022)
